# According to PubChem BioAssay (NCATS):
# Values joined by “and” are separate entries in the source; they are usually repeats but may differ in a detail not shown here. Equal entries are not always repeated. The list shows a part of the results. Shown are side measurements of this screen, not its main read-out; they come without a call. For some assays here: Compounds called inactive in the main read-out are mostly missing here. For some assays here: The note in brackets gives the kind of curve behind each potency; many fits are weak.
# What was measured:
# [1] = qHTS Assay for Lipid Storage Modulators (AID 1519); conditions: Drosophila S3 cells, BODIPY lipid droplet/cell ratio, laser cytometry, cells loaded with oleic acid
# Procedure, shortened: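 Cells seeded at 5,000 per well were treated with compounds over a concentration series and loaded with oleic acid (400 uM, as added). Lipid droplet fluorescence (488 nm excitation, 500-530 nm channel) was read by laser-scanning cytometry and normalized to 20 uM Triacsin C.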
# [2] = NCATS anti-infectives library activity on the primary C. elegans qHTS viability assay (AID 1745855); conditions: C. elegans worm area imaging
# Procedure, shortened: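 Viability is taken from GFP fluorescence of PE254-GFP-FLuc C. elegans imaged by laser cytometry over 7 days. Ten L1 worms per well grow at 21 °C on TOP10 E. coli capsules with titrated compound; levamisole marks toxicity.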
# [3] = qHTS Assay for Modulators of Human Peripheral Myelin Protein 22 (PMP22) Expression/Activity (AID 1967); conditions: Cell-based PMP22 reporter, dual-color luciferase ratio
# Procedure, shortened: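 Engineered MSC80 cells, Pmp22-promoter green and EF-alpha red luciferase reporters; 24h compound treatment at 37 °C. Concentration-response fits on green, red and ratio signals, each overlap-corrected, with %Activity normalized to untreated wells.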
# [4] = qHTS Validation Assay to Find Inhibitors of Chronic Active B-Cell Receptor Signaling (AID 485345); conditions: ABC-DLBCL cells, chronic BCR signaling reporter
# Procedure, shortened: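 Read-out: ratio of filter-corrected green (IkappaBalpha fusion) to red (native) luciferase signal in doxycycline-induced TMD8 cells after 4 h at 37C. Titration spanned 46 uM–3 nM; Data were normalised to basal cells and 10 uM MG-132 wells.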
# [5] = qHTS for identification of novel therapeutic agents for treatment of microphthalmiaassociated transcription factor (MiT) renal cell carcinoma (RCC) (AID 1963991); conditions: CellTiter-Glo, 48 h; for z-score: stronger effect = lower value;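 as to z-score: curves scaled with 100% = DMSO viability and 0% = empty wells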
# Procedure, shortened: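 UOK109/UOK124/UOK145 (TFE3 fusions, three partners); 500 cells/well; MIPE v4.0, 1912 cpds, 11 conc.; 48 h, 37 C; CellTiter-Glo, 15 min RT; lum. Norm.: DMSO 100%, empty 0%.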
# [6] = A High-Content qHTS Against Drug Library for the Identification of Small Molecules that Inhibit DYT1 Early Onset Primary Dystonia-Associated Cell Pathology (AID 1645839); conditions: HEK293 Flp-In EGFP-delE TorsinA, punctate imaging, 48 h; measured here: cell count cytotoxicity
# Procedure, shortened: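 In this high-content image screen, delE TorsinA mislocalization in inducible Flp-In 293 cells is scored as %pathology, with cell count serving as the counterscreen. Compound exposure lasts 48 h under tetracycline induction in reduced-serum medium.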
# [7] = qHTS assay for small molecule antagonists of androgen receptor signaling (AID 588516); conditions: AR-UAS-bla HEK293, beta-lactamase ratio, antagonist mode, 16 h
# Procedure, shortened: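 Cells were plated and incubated 5 h, compounds added in titration, then R1881 (10 nM final) as agonist. After 16 h at 37 C, CCF4 substrate was loaded for 2 h at room temperature and fluorescence measured.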
# [8] = qHTS assay for small molecule antagonists of peroxisome proliferator-activated receptor delta signaling (AID 588535); conditions: HEK293T PPARd-UAS-bla, beta-lactamase FRET ratio, 18 h; 460 nm channel;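 also: cells co-treated with a PPAR-delta agonist as stimulator during compound exposure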
# Procedure, shortened: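 Cell-based beta-lactamase assay in antagonist mode: 4000 HEK293T PPAR-delta-UAS-bla cells per well, 5 hr preincubation then 18 hr compound incubation at 37 C. IC50 obtained by Hill equation fitting.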
# [9] = qHTS assay for small molecule antagonists of peroxisome proliferator-activated receptor gamma signaling (AID 588537); conditions: HEK293 PPARg-UAS-bla, beta-lactamase ratio, antagonist mode; measured here: W460 blue channel
# Procedure, shortened: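 Inhibitors of agonist-stimulated UAS-bla reporter activity were sought in HEK293 cells; rosiglitazone (50 nM) defined full signal and DMSO baseline. Curves fitted to Hill model gave IC50 and efficacy.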
# [10] = qHTS assay for small molecule antagonists of vitamin D receptor signaling (AID 588541); conditions: HEK293T VDR-UAS-bla, beta-lactamase ratio, antagonist mode; measured here: W460 blue channel (cell viability)
# [11] = qHTS assay for small molecule agonists of retinoid X receptor alpha signaling (AID 588544); conditions: HEK293T RXRa-UAS-bla, beta-lactamase reporter, 18 h; 530 nm emission
# [12] = S16 Schwann cell PMP22 intronic element beta-lactamase assay (AID 624044); conditions: S16 rat Schwann cells, PMP22 element beta-lactamase FRET, 24 h; also: nearly all actives have a fitted effect of over 15% in size
# Procedure, shortened: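 Rat S16 Schwann cells with beta-Lac driven by a PMP22 intronic element, compound-treated 24 h at 37 °C. LiveBLAzer FRET B/G read: 460 nm normalized to potassium clavulanate vs DMSO; 535 nm FRET as viability; concentration-effect curves classified.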
# [13] = qHTS Assay for Inhibitors of PDE-IV (AID 607); conditions: HEK293 ACTOne CNG channel cells, membrane potential fluorescence; measured here: parental cell counter-screen;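 also: parental cells stimulated with forskolin 10 µM plus RO 20-1724 100 µM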
# Procedure, shortened: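 The readout is membrane depolarisation from a cAMP-sensing CNG channel, detected with a potential dye at ex 535/em 590. Cells were HEK293-derived (endogenous PDE-IV) at 1000 cells/well, titrated up to 22.9 uM final.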
# [14] = qHTS drug screen for cell cycle checkpoint inhibitors in PARPi-resistant BRCA-mutant ovarian cancer cell lines. (AID 1963452); conditions: PEO1/OlaR viability, CellTiter-Glo luminescence, 96 h
# Procedure, shortened: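 PEO1, PEO4 and PEO1/OlaR ovarian cancer cells, 600 per well, exposed 96 h at 37C to a dilution series. Viability read by CellTiter-Glo luminescence, normalized to DMSO and empty wells; activity summarized as Z-AUC.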
# [15] = measured here: cell count channel max response
# [16] = measured here: cell number channel AC50
# [17] = measured here: lipid (BODIPY) channel AC50
# [18] = measured here: lipid channel max response
# [19] = measured here: green reporter channel AC50, mouse Pmp22 promoter in mouse Schwann cells
# [20] = measured here: red reporter channel AC50, EF-alpha promoter control reporter in MSC80 mouse Schwann cells
# [21] = TFE3-RCC UOK109 viability, measured here: UOK109 Z-AUC
# [22] = TFE3-RCC viability, measured here: UOK124 Z-AUC
# [23] = TFE3-RCC viability, measured here: UOK124 cell viability
# [24] = TFE3-RCC viability, measured here: UOK145 Z-AUC
# [25] = TFE3-RCC viability, measured here: UOK145 cell viability
# Tags tell the direction and shape of the fitted curve.
structure (smiles),measurement,setting,value
COc1ccc2c(c1)[nH]c1c(C)nccc12,max response,[1]; [15],42.8%
same,AC50,[1]; [16],"0.282 µM [rising, full curve, poor fit]"
same,AC50,[1]; [17],"0.316 µM [rising, full curve, poor fit]"
same,max response,[1]; [18],40%
same,AC50,"[2]; day 7, measured here: worm number","25.8 µM [falling, single point]"
same,AC50,"[2]; day 7, measured here: worm area, day 3","25.8 µM [falling, single point]"
same,AC50,"[2]; day 7, measured here: worm number, day 3","25.8 µM [falling, partial curve, poor fit]"
COc1ccc2c(c[n+](C)c3c4cc5c(cc4ccc23)OCO5)c1OC,max response,[1]; [15],-102%
same,AC50,[1]; [16],"14.1 µM [falling, full curve, poor fit]"
same,AC50,[1]; [17],"14.1 µM [falling, full curve, poor fit]"
same,max response,[1]; [18],-116%
same,AC50,[3]; [19],"37.9 µM [falling, full curve]"
same,AC50,[3]; [20],"21.3 µM [falling, full curve]"
same,AC50,[4]; measured here: CBG/CBR ratio read-out,"16.4 µM [falling, single point]"
same,AC50,[4]; measured here: CBR control luciferase (viability counter),"13 µM [falling, partial curve]"
same,z-score,[5]; [21],-0.625
same,z-score,[5]; [22],-0.392
same,AC50,[5]; [23],"9.35 µM [falling, full curve]"
same,z-score,[5]; [24],-1.08
same,AC50,[5]; [25],"7.43 µM [falling, full curve]"
CCCCC/C=C\C/C=C\C/C=C\C/C=C\CCCC(=O)O,max response,[1]; [15],51.2%
same,AC50,[1]; [16],"31.6 µM [rising, partial curve, poor fit]"
same,AC50,[1]; [17],"11.2 µM [rising, single point]"
same,max response,[1]; [18],63%
CC(C)(C)NCC(O)c1cc(Cl)c(N)c(Cl)c1 (configuration not stated),max response,[1]; [15],43.8%
same,AC50,[1]; [16],"25.1 µM [rising, partial curve, poor fit]"
same,AC50,[1]; [17],"39.8 µM [rising, single point]"
same,max response,[1]; [18],62.4%
same,AC50,[6],"10 µM [falling, partial curve, poor fit]"
CCCN(CCC)[C@@H]1CCc2c(F)ccc(O)c2C1,max response,[1]; [15],35.5%
same,AC50,[1]; [16],"22.4 µM [falling, single point]"
same,AC50,[1]; [17],"22.4 µM [falling, partial curve, poor fit]"
same,max response,[1]; [18],34.7%
same,AC50,[3]; [20],"12 µM [rising, partial curve, poor fit]"
N[C@H](CCCCCP(=O)(O)O)C(=O)O,max response,[1]; [15],-28.3% and 23.1%
same,AC50,[1]; [16],"8.91 µM [falling, partial curve, poor fit] and 25.1 nM [falling, full curve, poor fit]"
same,AC50,[1]; [17],"708 nM [falling, full curve, poor fit] and 22.4 nM [falling, full curve, poor fit]"
same,max response,[1]; [18],-31.8% and 23.2%
same,AC50,[3]; [20],"84.9 µM [falling, single point]"
C[CH2][Hg][S]c1ccccc1C(=O)O,max response,[1]; [15],-67.9%
same,AC50,[1]; [16],"15.8 µM [falling, partial curve]"
same,AC50,[1]; [17],"7.08 µM [falling, full curve]"
same,max response,[1]; [18],-103%
same,AC50,[7]; measured here: W460 blue channel fit,"20 µM [falling, full curve, poor fit]"
same,AC50,"[7]; measured here: W530 green channel, cytotoxicity/artifact","28.2 µM [rising, single point]"
same,max response,[8],-62.2%
same,AC50,[9],"22.4 µM [falling, full curve]"
same,AC50,[10],"3.55 µM [falling, full curve]"
same,max response,[11],-29.7%
same,AC50,[12]; measured here: 460 nm blue channel,"5.01 µM [falling, full curve]"
same,AC50,[12]; measured here: 530 nm viability channel,"11.2 µM [falling, full curve]"
same,AC50,[6],"3.16 µM [falling, single point]"
O=C(CCCN1CCC2(CC1)C(=O)NCN2c1ccccc1)c1ccc(F)cc1,AC50,[13],"15.8 µM [rising, partial curve, poor fit]"
same,max response,[1]; [15],43.9% and -36.1%
same,AC50,[1]; [16],"11.2 µM [rising, partial curve] and 126 nM [falling, full curve, poor fit]"
same,AC50,[1]; [17],"14.1 µM [rising, partial curve, poor fit]"
same,max response,[1]; [18],57.4% and -37.2%
same,AC50,[3]; [19],"75.7 µM [falling, single point]"
same,AC50,[3]; [20],"84.9 µM [falling, single point]"
same,AC50,[6],"3.16 µM [falling, single point]"
CC1=NN=C(c2ccc(N)cc2)c2cc3c(cc2C1)OCO3,max response,[1]; [15],119% and 59.1%
same,AC50,[1]; [16],"2.24 µM [rising, full curve]"
same,AC50,[1]; [17],"2.51 µM [rising, full curve]"
same,max response,[1]; [18],181% and 62.5%
same,AC50,[3]; [19],"84.9 µM [falling, single point]"
COc1ccc(C(=O)c2c(C)n(CCN3CCOCC3)c3cc(I)ccc23)cc1,AC50,[13],"12.6 µM [rising, partial curve]"
same,max response,[1]; [15],61.1%
same,AC50,[1]; [16],"0.562 µM [rising, full curve]"
same,AC50,[1]; [17],"0.501 µM [rising, full curve]"
same,max response,[1]; [18],76.4%
same,AC50,[14]; measured here: PEO1 parental viability,"9.77 µM [falling, partial curve]"
same,AC50,[14]; measured here: PEO4 viability,"12.3 µM [falling, partial curve]"
same,z-score,[5]; [21],0.422
same,z-score,[5]; [22],0.566
same,AC50,[5]; [23],"37.2 µM [falling, single point]"
same,z-score,[5]; [24],0.41
same,AC50,[5]; [25],"20.9 µM [falling, single point]"
